According to publication PMC7819943, “Rice protein-binding microarrays: a tool to detect cis-acting elements near promoter regions in rice”:
The other results are listed elsewhere or left out.

biological target: T1, OsWOX13 (Oryza sativa, UniProt Q5QMM3 1-267); test: protein-binding microarray (RPBM); PBS, 2% BSA, 51.3 ng/ul salmon testes DNA, 50 uM zinc acetate, 200 nM TF, 25 C, 1 h; high values mean tight binding; settings: protein: recombinant; tags: N-terminal polyhistidine and DsRed monomer fusion (pET32a); label: CyDye5-dUTP incorporated in the synthesized complementary strand; 3' TTTTT single-stranded linker to array surface; dsDNA, one strand shown
T1 sequence: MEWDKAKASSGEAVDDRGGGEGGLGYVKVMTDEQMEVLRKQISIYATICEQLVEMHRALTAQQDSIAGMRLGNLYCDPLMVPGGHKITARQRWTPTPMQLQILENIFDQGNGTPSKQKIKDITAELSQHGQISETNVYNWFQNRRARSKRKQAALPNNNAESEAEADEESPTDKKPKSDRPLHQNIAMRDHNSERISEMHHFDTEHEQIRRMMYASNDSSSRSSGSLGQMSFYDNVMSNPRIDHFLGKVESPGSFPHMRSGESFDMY
Outline: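 The binding signal is fluorescence intensity per array feature (arbitrary units). Readings came from an Axon 4000B scanner after a washed, 2% BSA-blocked, double-stranded custom Agilent array had been incubated for 1 h at 25 °C with 200 nM protein and 50 µM zinc acetate. The protein was a Ni–NTA-purified transcription factor fused N-terminally to polyhistidine and DsRed, expressed in E. coli BL21-CodonPlus.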

Sequence | binding signal
ATGTCTCTAATTGTCTTCCAAATTTCCTCCTCCCCGAAGTCGGAGTCACCTAGTGCAG | 13100 fluorescence intensity (a.u.)
GATAACAGCACCAATCTTAACATTGCAGCTTATTACACACCGGAGTCACCTAGTGCAG | 4370 fluorescence intensity (a.u.)
GATATAATTGCCACGTAAGCGCCACGTCAATGCCACGTGCCGGAGTCACCTAGTGCAG | 19400 fluorescence intensity (a.u.)
CCTAATTAATTCACCAGACGAAGTTAGTGTAATCCGAGGACGGAGTCACCTAGTGCAG | 28300 fluorescence intensity (a.u.)
GGAAGGAGTAATTGCTAAACCCAATACGGTGATAGGCCGCCGGAGTCACCTAGTGCAG | 3460 fluorescence intensity (a.u.)
TCCAAATAATTAAGTTGTCGCATAACTTCTTATCTTATTGCGGAGTCACCTAGTGCAG | 9760 fluorescence intensity (a.u.)
ATGCAGATGCTAATTGATCTTGAGGTCTGTGCAAGTCTTTCGGAGTCACCTAGTGCAG | 14300 fluorescence intensity (a.u.)
GAATAATCACAAGCTGTTTCTATCTGGATCAAATCTGATGCGGAGTCACCTAGTGCAG | 3660 fluorescence intensity (a.u.)
TCCCTTGATATGATGATAAATCCACTGATATTTGGACCGCCGGAGTCACCTAGTGCAG | 7520 fluorescence intensity (a.u.)
ACATATAATTGCCACGTCAGCGCCACATCAATGCCACGTGCGGAGTCACCTAGTGCAG | 23200 fluorescence intensity (a.u.)
CAAAACTTAATTAAACATAAGCTAATGGGCCGTTTTCATTCGGAGTCACCTAGTGCAG | 6880 fluorescence intensity (a.u.)
TATATATATATATATATATAGAGAGAGAGAGAGAGATTATCGGAGTCACCTAGTGCAG | 6530 fluorescence intensity (a.u.)
ACGGATTAATTAGGCTCAAAAGATTCGTCTCGCAGTTTACCGGAGTCACCTAGTGCAG | 24000 fluorescence intensity (a.u.)
CGTTCTACTCTTGATTTGAATTAGGGATGCAAGCGGGACGCGGAGTCACCTAGTGCAG | 5150 fluorescence intensity (a.u.)
ACATTAACGGCAAATCACTGTAGCACATTCATTCAATGCACGGAGTCACCTAGTGCAG | 11600 fluorescence intensity (a.u.)
ACAATTTGAGCATGATTTATATTCTACATATTTTAAAGTTCGGAGTCACCTAGTGCAG | 5480 fluorescence intensity (a.u.)
TTAACTGGGGCATGAAAAGTGATTGTACGGAGCAAAGTGTCGGAGTCACCTAGTGCAG | 4170 fluorescence intensity (a.u.)
ATTTTAACTAATTTTAAATTGTATTCCTACTTGAACTCTTCGGAGTCACCTAGTGCAG | 26800 fluorescence intensity (a.u.)
CATTAATGATGTGGAATAACAATGCAACTTAAACTTACAGCGGAGTCACCTAGTGCAG | 7110 fluorescence intensity (a.u.)
CAAATTTAACTCAAAATTAAATCTTCAATATTTATTTTGCCGGAGTCACCTAGTGCAG | 20500 fluorescence intensity (a.u.)
AATAATGATATGATTGAAAATAGCATTAATCTGAACAGCCCGGAGTCACCTAGTGCAG | 50400 fluorescence intensity (a.u.)

Sequence | binding signal
TTAATGACATATAAACAATGAGATGGCATCCCCTCGAGCGCGGAGTCACCTAGTGCAG | 4840 fluorescence intensity (a.u.)
CTCTCGACAATTTTAAATTAAAATTTCGACAGCAGAAAATCGGAGTCACCTAGTGCAG | 4070 fluorescence intensity (a.u.)
TGGGGATTGAGAGCATTTGAATTAGGGAGCAAGAGTTTCACGGAGTCACCTAGTGCAG | 5000 fluorescence intensity (a.u.)
CCCTGATGGCGTGATCAATCTAGTCTTCTGTGTATATAAACGGAGTCACCTAGTGCAG | 8370 fluorescence intensity (a.u.)
AAAACTAATTACAGAATCCGTCAGTAAATCGTGAGATAAACGGAGTCACCTAGTGCAG | 19000 fluorescence intensity (a.u.)
ATTTTAAATTTATTATTTAATTATATACTGTATAAACTTACGGAGTCACCTAGTGCAG | 9470 fluorescence intensity (a.u.)
GATGGTATTAACATATGATTGATTGAGTTTTAATTATTACCGGAGTCACCTAGTGCAG | 28700 fluorescence intensity (a.u.)
GTGTATAATAGATAATCTAGTTTCATGATGAATTGGATACCGGAGTCACCTAGTGCAG | 17100 fluorescence intensity (a.u.)
GCTGTCAACGACAAAATTATCATTTGTTGTTTTGACATAGCGGAGTCACCTAGTGCAG | 3950 fluorescence intensity (a.u.)
AATAGACAGCATTTTCGGCTTCCAACCGGCTACCTTCTTTCGGAGTCACCTAGTGCAG | 5900 fluorescence intensity (a.u.)
GTAGCAAATTGAATAGCTTCAAACTCCATCCCACATAGGTCGGAGTCACCTAGTGCAG | 20000 fluorescence intensity (a.u.)
GACCCAGGTAATTGCTGCTGCTGTAGTTGCCTTTGTTGGTCGGAGTCACCTAGTGCAG | 3790 fluorescence intensity (a.u.)
CCTAATCAGCATTTTAATTACTGGGATTCCAACTTACACACGGAGTCACCTAGTGCAG | 12200 fluorescence intensity (a.u.)
TGGTGTAGATTGATTTATGTAGTACGGATTAATTGGCATTCGGAGTCACCTAGTGCAG | 50300 fluorescence intensity (a.u.)
GATATGTAGGACCCACATGATTCAATGACATGTGGGTCAGCGGAGTCACCTAGTGCAG | 48900 fluorescence intensity (a.u.)
ATAATTTAGAATTATTATTTATTTTATTTGTGACTGGCTTCGGAGTCACCTAGTGCAG | 5280 fluorescence intensity (a.u.)
AAGTTAATTATATACTATAGAATTATCATTCCGATCCCTACGGAGTCACCTAGTGCAG | 25600 fluorescence intensity (a.u.)
CCCACTAACAGAGTAACCCAACAGCCCAACTGATTTTGATCGGAGTCACCTAGTGCAG | 4440 fluorescence intensity (a.u.)
GGATAATTTTGCGCGTAATTCAAATAAGACTTGTGTAGCGCGGAGTCACCTAGTGCAG | 28000 fluorescence intensity (a.u.)
GAATAATTTACCCATTTATTATTGATCTTTATTCTTTGACCGGAGTCACCTAGTGCAG | 30400 fluorescence intensity (a.u.)
TTCATGGTGATTGATCACTCTCGGACACTGATTTTCCACTCGGAGTCACCTAGTGCAG | 46300 fluorescence intensity (a.u.)
